Reference: article PMC5681660, “Reduced hepatitis B and D viral entry using clinically applied drugs as novel inhibitors of the bile acid transporter NTCP” (Scientific Reports, 2017)
Structures can show the parent of a compound that is named as a salt. Where two headings read alike, the source gives them in different places.

Assays:
human NTCP [1] = target: T1, human NTCP (Homo sapiens, UniProt Q14973); test: Screening fluorescent competitive Myrcludex B-FITC binding assay (96-well, 10 µM drug); conditions: for remaining activity at 10 µM: 0.5 h; for %NTCP binding: Myrcludex B-FITC binding, 10 µM drug
T1 sequence (Q14973 1-349): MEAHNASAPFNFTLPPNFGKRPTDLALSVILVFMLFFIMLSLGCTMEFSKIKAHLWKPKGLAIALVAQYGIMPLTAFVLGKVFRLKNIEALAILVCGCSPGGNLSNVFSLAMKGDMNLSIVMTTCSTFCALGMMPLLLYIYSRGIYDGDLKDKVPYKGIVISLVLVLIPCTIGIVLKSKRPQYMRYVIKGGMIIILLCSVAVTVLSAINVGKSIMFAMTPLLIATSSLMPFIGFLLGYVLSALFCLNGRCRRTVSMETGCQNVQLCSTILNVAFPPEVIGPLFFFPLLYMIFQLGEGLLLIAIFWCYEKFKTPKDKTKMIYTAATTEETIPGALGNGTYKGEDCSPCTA

human NTCP [2] = target: T1, human NTCP; test: Screening taurocholate uptake assay (96-well, [14C]taurocholate, 10 µM drug); conditions: for remaining activity at 10 µM: 10 min, read-out: %NTCP activity
[3] = Prestwick library screen, [14C]taurocholate uptake, 10 µM drug
[4] = screen, 10 µM drug, [14C]taurocholate uptake
[5] = read-out: %NTCP binding, screen, 10 µM drug, Myrcludex B-FITC binding
[6] = read-out: %NTCP binding, Prestwick library screen, Myrcludex B-FITC binding, 10 µM drug

remaining activity at 10 µM (human NTCP [1]; read-out: %NTCP binding)	remaining activity at 10 µM (human NTCP [2])	Structure (SMILES)	other results
82.9%	80.8%	CC(c1cc2ccccc2s1)N(O)C(N)=O (stereo not drawn) [Zileuton]	
82.6%	71.3%	O=C1C(O)=C([C@H]2CC[C@H](c3ccc(Cl)cc3)CC2)C(=O)c2ccccc21 [Atovaquone]	
		CCN(CC)Cc1cc(Nc2ccnc3cc(Cl)ccc23)ccc1O.Cl.Cl.O.O [Amodiaquin dihydrochloride dihydrate]	%NTCP binding (human NTCP [1]; Prestwick library screen): 59.2411%; %NTCP activity (human NTCP [2]; [3]): 64.7001%
		CC(C)C[C@H]1C(=O)N2CCC[C@H]2[C@]2(O)O[C@](NC(=O)[C@@H]3C=C4c5cccc6[nH]c(Br)c(c56)C[C@H]4N(C)C3)(C(C)C)C(=O)N12.CS(=O)(=O)O [Bromocryptine mesylate]	%NTCP binding (human NTCP [1]; screen): 81.5861%; %NTCP activity (human NTCP [2]): 68.1662%
115%	80.1%	CC[N+](CC)(CC(=O)Nc1c(C)cccc1C)Cc1ccccc1 [Denatonium benzoate]	
70.6%	133%	CO/N=C(\C(=O)N[C@@H]1C(=O)N2C(C(=O)O)=C(COC(N)=O)CS[C@H]12)c1ccco1 [Cefuroxime sodium salt]	
71.6%	78%	O=c1[nH]c(=O)n(C2CCCO2)cc1F (stereo not drawn) [Tegafur]	
		CCN(CC)CCCC(C)Nc1c2ccc(Cl)cc2nc2ccc(OC)cc12.Cl.Cl (stereo not drawn) [Quinacrine dihydrochloride hydrate]	%NTCP binding (human NTCP [1]; screen): 104.564%; %NTCP activity (human NTCP [2]; [4]): 42.6745%
69.3%	62.1%	C[C@@H](O)[C@H]1C(=O)N2C(C(=O)O)=C(SCCN=CN)C[C@H]12 [Imipenem]	
72.2%	73.2%	C[N+]1(C)CCCC(OC(=O)C(O)(c2ccccc2)c2ccccc2)C1 (stereo not drawn) [Mepenzolate bromide]	
90.3%	97%	Cc1nc2ccccn2c(=O)c1CCN1CCC(C(=O)c2ccc(F)cc2)CC1 [Pirenperone]	
83.3%	101%	COc1cc(C(=O)NC2CCCNC2)cc(OC)c1OC (stereo not drawn) [Troxipide]	
78.9%	92.5%	CC(=O)OCC(=O)[C@@]12OC(C)(C)O[C@@H]1C[C@H]1[C@@H]3C[C@H](F)C4=CC(=O)C=C[C@]4(C)[C@@]3(F)[C@@H](O)C[C@@]12C [Fluocinonide]	
117%	90.2%	COC(=O)Nc1nc2ccc([S+]([O-])c3ccccc3)cc2[nH]1 (stereo not drawn) [Oxfendazol]	
62.4%	113%	Cc1cccc(C)c1NC(=O)CN1CCN(CCCC(c2ccc(F)cc2)c2ccc(F)cc2)CC1 [Lidoflazine]	
106%	115%	CCOC(=O)Nc1ccc2c(c1)N(C(=O)CCN1CCOCC1)c1ccccc1S2 [Moricizine hydrochloride]	
119%	93.4%	CC(=O)OCC(CCn1cnc2cnc(N)nc21)COC(C)=O [Famciclovir]	
79%	54.3%	NC(CO)C(=O)NNCc1ccc(O)c(O)c1O (stereo not drawn) [Benserazide hydrochloride]	
		CCN(CC)CCOc1ccc(C(=C(Cl)c2ccccc2)c2ccccc2)cc1.O=C(O)CC(O)(CC(=O)O)C(=O)O [Clomiphene citrate (Z,E)]	%NTCP binding (human NTCP [1]; Prestwick library screen): 70.6525%; %NTCP activity (human NTCP [2]; [3]): 111.574%
82.8%	118%	CC(C)(C)NC(=O)[C@H]1CC[C@H]2[C@@H]3CC[C@H]4NC(=O)C=C[C@]4(C)[C@H]3CC[C@]12C [Finasteride]	
72.3%	108%	CC1(C)O[C@@H]2C[C@H]3[C@@H]4C[C@H](F)C5=CC(=O)CC[C@]5(C)[C@H]4[C@@H](O)C[C@]3(C)[C@]2(C(=O)CO)O1 [Flurandrenolide]	
86.5%	141%	CCOC(=O)[C@H](CCc1ccccc1)N[C@H]1CCc2ccccc2N(CC(=O)O)C1=O [Benazepril HCl]	

remaining activity at 10 µM (human NTCP [1]; read-out: %NTCP binding)	remaining activity at 10 µM (human NTCP [2])	Structure (SMILES)	other results
84.8%	48.5%	[H]/N=C(\N/C(=N/[H])Nc1ccc(Cl)cc1)NC(C)C [Proguanil hydrochloride]	
94.2%	83.6%	CN1CCN(c2c(F)cc3c(=O)c(C(=O)O)cn4c3c2SCC4)CC1 [Rufloxacin]	
98.8%	112%	Cc1onc(-c2c(F)cccc2Cl)c1C(=O)N[C@@H]1C(=O)N2[C@@H]1SC(C)(C)[C@@H]2C(=O)O [Flucloxacillin sodium]	
92.3%	79.6%	Nc1ncnc2c1ncn2[C@@H]1O[C@H](CO)[C@@H](O)[C@@H]1O [Vidarabine]	
60.1%	20.2%	CC(C)[C@H](N)C(=O)OCCOCn1cnc2c(=O)[nH]c(N)nc21 [Valacyclovir hydrochloride]	
81.7%	70.6%	CCCC1O[C@@H]2C[C@H]3[C@@H]4CCC5=CC(=O)C=C[C@]5(C)[C@H]4[C@@H](O)C[C@]3(C)[C@]2(C(=O)CO)O1 (stereo partly drawn) [Budesonide]	
74.8%	69.7%	CC[C@H]1OC(=O)[C@H](C)[C@@H](O[C@H]2C[C@@](C)(OC)[C@@H](O)[C@H](C)O2)[C@H](C)[C@@H](O[C@@H]2O[C@H](C)C[C@H](N(C)C)[C@H]2O)[C@](C)(O)C[C@@H](C)[C@@H]2N[C@@H](COCCOC)O[C@H]([C@H]2C)[C@]1(C)O [Dirithromycin]	
85.1%	94.5%	Cn1cnc2c1c(=O)[nH]c(=O)n2C [Theobromine]	
46.6%	34.5%	CCN1CCC[C@H]1CNC(=O)c1c(O)c(Cl)cc(Cl)c1OC [Raclopride]	
70.7%	37%	CN(C)CCC(c1ccc(Br)cc1)c1ccccn1 (stereo not drawn) [Brompheniramine maleate]	
		CCN1CC(CCN2CCOCC2)C(c2ccccc2)(c2ccccc2)C1=O.Cl (stereo not drawn) [Doxapram hydrochloride]	%NTCP binding (human NTCP [1]; screen): 83.6716%; %NTCP activity (human NTCP [2]; [4]): 88.896%
73%	43.2%	CC1=C(C(=O)O)N2C(=O)[C@@H](NC(=O)[C@H](N)c3ccc(O)cc3)[C@H]2SC1 [Cefadroxil]	
78.2%	108%	CN(C)CCC[C@@]1(c2ccc(F)cc2)OCc2cc(C#N)ccc21 [Escitalopram oxalate]	
50.2%	71.5%	CC(C)COCC(CN(Cc1ccccc1)c1ccccc1)N1CCCC1 (stereo not drawn) [Bepridil hydrochloride]	
72.1%	113%	CC(NCCC(c1ccccc1)c1ccccc1)c1ccccc1 (stereo not drawn) [Fendiline hydrochloride]	
77.9%	57.2%	O=C1O[C@H]([C@@H](O)CO)C(O)=C1O [Ascorbic acid]	
78.8%	79.3%	CCN(CC)CCOC(=O)C(Cc1cccc2ccccc12)CC1CCCO1 (stereo not drawn) [Nafronyl oxalate]	
122%	51.2%	Cc1cc(=O)oc2cc(O)ccc12 [Hymecromone]	
100%	113%	C[C@]12C=CC(=O)C=C1CC[C@@H]1[C@@H]2C(=O)C[C@@]2(C)[C@H]1CC[C@]2(O)C(=O)CO [Prednisone]	
98.5%	38%	CCN1CCN(C(=O)N[C@@H](C(=O)N[C@@H]2C(=O)N3[C@@H]2SC(C)(C)[C@@H]3C(=O)O)c2ccccc2)C(=O)C1=O [Piperacillin sodium salt]	
		Cl.Clc1ccc(Cn2c(CN3CCCC3)nc3ccccc32)cc1 [Clemizole hydrochloride]	%NTCP binding (human NTCP [1]; screen): 60.3985%; %NTCP activity (human NTCP [2]; [4]): 124.155%

Structure (SMILES)	remaining activity at 10 µM (human NTCP [1]; read-out: %NTCP binding)	remaining activity at 10 µM (human NTCP [2])	other results
Cn1c(=O)c2c(ncn2CC(=O)O)n(C)c1=O [Acefylline]	87.6%	97.7%	
COc1cc(C)c(/C=C/C(C)=C/C=C/C(C)=C/C(=O)O)c(C)c1C [Acitretin]		65.7%	remaining activity at 10 µM (human NTCP [1]; [5]): 72.1%
Clc1cnccn1 [2-Chloropyrazine]		120%	remaining activity at 10 µM (human NTCP [1]; [6]): 82%
C=C(C)[C@@H]1[C@H]2OC(=O)[C@@H]1[C@]1(O)C[C@H]3O[C@]34C(=O)O[C@H]2[C@]14C [Picrotoxinin]	87.5%	91.2%	
C[C@@H]1CN([C@H]2CC[C@](C#N)(c3ccc(F)cc3)CC2)CC[C@]1(C(=O)O)c1ccccc1 [Levocabastine hydrochloride]		71.1%	remaining activity at 10 µM (human NTCP [1]; [6]): 81.3%
C=C(CC)C(=O)c1ccc(OCC(=O)O)c(Cl)c1Cl [Ethacrynic acid]	74.3%	48.9%	
CC(C)N(CCC(C(N)=O)(c1ccccc1)c1ccccn1)C(C)C (stereo not drawn) [Disopyramide]		40.2%	remaining activity at 10 µM (human NTCP [1]; read-out: %NTCP binding, Prestwick library screen, 10 µM drug, Myrcludex B-FITC binding): 75%
S=C(NC1CCCCC1)N1CCC(c2cnc[nH]2)CC1 [Thioperamide maleate]		59.4%	remaining activity at 10 µM (human NTCP [1]; [5]): 91.2%
